# Reference: PubChem BioAssay AID1030 (National Center for Advancing Translational Sciences (NCATS), 2008)
# The whole screen tested about 220,000 compounds, of which about 16,000 (7.3%) were called active. This list was built around the results that the source calls inconclusive (neither active nor inactive); the mix of calls is not that of the screen. Calls follow the shape of the dose curve; as a rule, active = well fitted inhibition curve with a large enough effect (not every such curve was filed as active); inconclusive = small, poorly fitted or top-dose-only effect, or another doubt; inactive = no such curve, though single readings can be large or run the other way. Potencies of inconclusive entries are left out as doubtful fits.
# Target: Aldehyde dehydrogenase 1A1 (Homo sapiens) (UniProt P00352)
# Sequence of UniProt P00352 (P00352 whole entry, looked up): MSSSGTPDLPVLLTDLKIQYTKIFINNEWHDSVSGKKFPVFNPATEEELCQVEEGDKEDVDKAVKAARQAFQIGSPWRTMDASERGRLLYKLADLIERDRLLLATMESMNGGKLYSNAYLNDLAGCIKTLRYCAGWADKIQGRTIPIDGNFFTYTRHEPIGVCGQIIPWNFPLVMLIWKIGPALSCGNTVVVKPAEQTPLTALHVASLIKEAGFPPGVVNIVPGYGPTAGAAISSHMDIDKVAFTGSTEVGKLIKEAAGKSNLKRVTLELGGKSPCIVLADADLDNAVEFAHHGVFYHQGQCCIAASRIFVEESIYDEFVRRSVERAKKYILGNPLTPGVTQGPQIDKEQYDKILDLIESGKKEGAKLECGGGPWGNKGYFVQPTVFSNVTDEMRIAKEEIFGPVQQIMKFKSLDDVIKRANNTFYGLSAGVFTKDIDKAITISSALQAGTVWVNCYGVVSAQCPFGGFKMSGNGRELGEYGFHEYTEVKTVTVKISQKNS
# Assay: qHTS Assay for Inhibitors of Aldehyde Dehydrogenase 1 (ALDH1A1);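 as to activity, negative = inhibition: plate controls were no enzyme wells and a reference inhibitor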
# Details: Purified ALDH1A1, NADH fluorescence, propionaldehyde substrate; series mostly up to 75.3 µM
# Potency is read from the fitted curve at half-maximal effect; tags tell the direction and shape of the fitted curve.
SMILES,Potency,"activity, negative = inhibition"
O=C1c2ccccc2C(=O)c2c1oc(C(F)(F)F)c2C(=O)c1ccccc1,"inconclusive [inhibitor, partial curve]",–
CCOC(=O)c1nn(-c2ccccc2)c(=O)c2c(N)scc12,"inconclusive [inhibitor, partial curve]",–
CCOC(=O)CNS(=O)(=O)c1ccc(S(=O)(=O)N2CCCC2)cc1,"inconclusive [inhibitor, single point]",–
CC1CC(=O)NN1C(=O)c1ccccc1 (configuration not stated),inactive,–
COc1ccccc1NC(=O)C1=C(C)NC(=O)NC1c1ccccc1[N+](=O)[O-] (configuration not stated),"inconclusive [inhibitor, partial curve]",–
COCCCNC(=O)/C=C1\Sc2ccccc2N(Cc2ccccc2F)C1=O,"inconclusive [inhibitor, partial curve]",–
O=C(Nc1ccc(N2CCOCC2)c(Cl)c1)c1ccccc1Cl,inactive,–
CC(C)(C(O)c1ccc([N+](=O)[O-])cc1)[N+](=O)[O-] (configuration not stated),"inconclusive [inhibitor, single point]",–
O=C(NCc1ccco1)C1CCN(c2nc3ccccc3n2Cc2ccccc2F)CC1,active: 28.2 µM,–
CCOC(=O)c1c(NC(=O)CSc2nnc(C)s2)sc2c1CCN(C)C2,"inconclusive [inhibitor, single point]",–
Nc1nc2c(nc(Br)n2C2CC(O)C(CO)O2)c(=O)[nH]1 (configuration not stated),inactive,–
O=C1CSC(c2cccc([N+](=O)[O-])c2)N1c1ccc(O)cc1 (configuration not stated),inactive,–
COc1cnc(N(C)C)nc1Sc1cccc(Cl)c1,"inconclusive [inhibitor, partial curve]",–
O=C(Nc1ccc(Cl)cc1Cl)C1CCC(=O)N1Cc1ccccc1Cl (configuration not stated),"inconclusive [inhibitor, partial curve]",–
CCOc1ccc(N(C(C)C(=O)NC(C)CC)S(C)(=O)=O)cc1 (configuration not stated),"inconclusive [inhibitor, single point]",–
CCOC(=O)c1cc(CC)sc1NC(=O)c1ccc(N2C(=O)CCC2=O)cc1,"inconclusive [inhibitor, partial curve]",–
O=C(NNc1ccc(O)cc1)c1ccc(Br)cc1,active: 7.08 µM,–
N=C(N)SCCSC(=N)N,–,inactive: 9.84% [at 13.5 µM]
COc1ccc(/C=N/NC(=O)c2nc(Cl)c(Cl)c(N)c2Cl)cc1COc1ccccc1F,"inconclusive [inhibitor, single point]",–
COc1ccc(N2CCN(C(=O)CSc3nc4cc(OC)c(OC)cc4cc3C#N)CC2)cc1,active: 14.1 µM,–
CCOC(=O)C12CC1/C(=N/O)c1ccccc1O2 (configuration not stated),inactive,–
CC(C)NC(=S)N1CCN(c2ncccn2)CC1,inactive,–
CCN(CC(=O)NCc1cccs1)c1ccc(S(=O)(=O)N2CCOCC2)cn1,"inconclusive [inhibitor, single point]",–
N#C/C(=C\c1ccc[nH]1)C(=O)c1ccccc1,"inconclusive [inhibitor, partial curve]",–

SMILES,Potency,"activity, negative = inhibition"
Cc1cc(C)c(S(=O)(=O)/N=C2\C=CC(=O)C(Cl)=C2)c(C)c1,"inconclusive [inhibitor, single point]",–
Cc1ccc(-c2c(C#N)c(N)nc3c2CCCCC3)o1,"inconclusive [inhibitor, single point]",–
CC1(C)Cc2ccccc2/C(=C/C(=O)N2CCCCCC2)N1,"inconclusive [inhibitor, partial curve]",–
Cc1ccc(C(=O)N2CCN(Cc3ccc4c(c3)OCO4)CC2)o1,inactive,–
Cc1cccc(Cn2c(=O)c3c(nc4n3CCN4Cc3ccco3)n(C)c2=O)c1,"inconclusive [inhibitor, single point]",–
O=C(NCCN1C(=O)S/C(=C\c2cccs2)C1=O)[C@H](Cc1ccccc1)N1C(=O)c2ccccc2C1=O,inactive,–
O=c1c2c3c(sc2nc2n1CCC2)CCCCC3,inactive,–
COc1ccccc1NS(=O)(=O)c1cccc(NC(=O)Nc2ccc(Cl)cc2)c1,inactive,–
CSc1nc(=NC(C)=O)ss1,active: 1.78 µM,–
CCCCn1c(-c2ccco2)n[nH]c1=S,"inconclusive [inhibitor, full curve]",–
O=C(c1ccc(-n2c(=O)c(=O)[nH]c3ccccc32)cc1)N1CCCN(Cc2ccccc2)CC1,"inconclusive [inhibitor, single point]",–
Cn1cccc1CC(=O)NNC(=S)Nc1ccc(Cl)cc1,"inconclusive [inhibitor, single point]",–
COc1ccc(NC(=O)C(CC(C)C)NC(=O)C2CCC(C)CC2)c(OC)c1 (configuration not stated),inactive,–
CC(C)N(C(=O)CSc1nc2ccccc2n1Cc1ccc(F)cc1)C(C)C,active: 25.1 µM,–
COc1cc(OC)c(NC(=S)Nc2cccc(C(C)=O)c2)cc1Cl,inactive,–
CCCCOc1ccc(-c2c(C(=O)Nc3ccccc3)c(C)[nH]c(=S)c2C#N)cc1,active: 3.55 µM,–
CC1CN(CC(=O)N2CCc3[nH]c4ccccc4c3C2)CC(C)O1 (configuration not stated),"inconclusive [inhibitor, single point]",–
COc1ccc(CC(=O)Nc2ccc(-c3cn4ccc(C)cc4n3)cc2)cc1,"inconclusive [inhibitor, partial curve]",–
Cn1cnc([N+](=O)[O-])c1Sc1n[nH]c(N)n1,inactive,–
CCOC(=O)C1CCN(C(=O)COc2ccc(N(C)S(=O)(=O)c3ccc(OCC)cc3)cc2)CC1,"inconclusive [inhibitor, partial curve, poor fit]",–
COC(=O)c1sccc1Oc1c(Cl)cccc1[N+](=O)[O-],"inconclusive [inhibitor, single point]",–
CC(=O)c1cc(NC(=O)c2ccc([N+](=O)[O-])cc2)c(=O)oc1C,"inconclusive [inhibitor, single point]",–
O=C(Nc1cccnc1)C1(c2ccc(Cl)cc2)CCCC1,"inconclusive [inhibitor, single point]",–
